Consider one compound from US20260124226A1 (priority 2023, published 2026).

One data set concerns Vero cells. Particulars: African green monkey.
For data set [1] the following is noted: mouse, in vivo, po, 10 mg/kg.
For data set [2] the following is noted: human (A549, HepG2); African green monkey (Vero).

Each structure is given as a SMILES string.

In the case of `CC(C)OC(=O)[C@H](C)N[P@](=O)(OC[C@@]1(F)O[C@@H](n2ccc(=O)[nH]c2=O)[C@H](O)[C@@H]1O)Oc1ccccc1` [EIDD-3232, isopropyl ((S)-(((2S,3S,4R,5R)-5-(2,4-dioxo-3,4-dihydropyrimidin-1(2H)-yl)-2-fluoro-3,4-dihydroxytetrahydrofuran-2-yl)methoxy)(phenoxy)phosphoryl)-L-alaninate], in the data set on Vero cells, the “intracellular EIDD-2991 (highest level)” value came out at 70 µM and the “intracellular EIDD-3232 level reached” value is roughly 60 µM. Also, the EIDD-3321 in kidney in data set [1] (female, ICR (CD-1)) is given as roughly 0.02 nmol/g. Also, in data set [1], the EIDD-3232 in tissues result is “not detected” and the “EIDD-3321 in all other tissues” value was “BQL”. In addition, the “intracellular concentration of EIDD-3232” value in data set [2] was 3 to 20 µM.
